Source: PubChem BioAssay AID1508624 (National Center for Advancing Translational Sciences (NCATS), 2021)
Screen size: about 48,000 compounds; about 120 (0.25%) were called active. Inconclusive results (about 4%) are left out. Calls follow the shape of the dose curve; as a rule, active = well fitted activation curve with a large enough effect; inconclusive = small, poorly fitted or top-dose-only effect, or another doubt; inactive = no such curve, though single readings can be large or run the other way. This is one part of the list.

Assay: Primary qHTS for Identification of Small Molecule Activators of Huntingtin-Antisense Promoter Activity; also: nearly all actives have a fitted effect of over 55% in size
Conditions: HEK293 HTT-AS promoter firefly luciferase reporter (activity 0% = vehicle and -100% = no light), 24 h; series mostly up to 57.5 µM; activity change, positive = activation: at the top concentration
Outline: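 Luminescence was read after Dual-Glo reagent and a 10 min room-temperature incubation. Values were normalized to vehicle (0% activity) and zero RLU (-100% activity). Reporter HEK293 cells had been exposed to compounds (up to 57.5 uM final) for 24 h.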

SMILES | activity change, positive = activation
Cc1ccc(C)c(-c2[nH]c3c(c2-c2c(-n4cccc4)n(C)c(=O)[nH]c2=O)c(=O)[nH]c(=O)n3C)c1 | inactive: -5.44%
Cc1ccc(-c2nc(CCNC(=O)C(=O)Nc3ccc(C)cc3C)cs2)cc1 | inactive: -7.06%
CCOc1ccc(CCNC(=O)Cn2nc(-c3ccc(C)cc3)ccc2=O)cc1OCC | inactive: -13.1%
CCc1ccccc1NC(=O)C1=C(C)C(=O)OC12CCCCCC2 | inactive: -20.1%
COc1cc(CN2CCN(S(=O)(=O)c3ccccc3)CC2)cc(OC)c1O | inactive: 18.6%
O=C(CNS(=O)(=O)c1cccs1)N1CCN(c2cccc(C(F)(F)F)c2)CC1 | inactive: -27%
CCc1ccc(-c2nc(CS(=O)CC(=O)NCCc3ccc(Cl)cc3)c(C)o2)cc1 (configuration not stated) | inactive: -15.3%
O=C1CCSC2(C(=O)N(Cc3ccc(F)cc3)c3ccccc32)N1c1ccc(F)c(F)c1 (configuration not stated) | inactive: -26%
CCNC(=O)CC1C(=O)N(c2cccc(OC)c2)C(=O)N1Cc1ccc(OC)c(OC)c1 (configuration not stated) | inactive: -15.2%
CCOc1ccc2oc(=O)cc(CN3CCN(C(=O)c4ccc(F)cc4)CC3)c2c1 | inactive: -26.5%
Cc1c(C(=O)Nc2cccc(Cl)c2)oc2ccc(S(=O)(=O)N(C)C3CCCCC3)cc12 | inactive: -26.5%
COc1cccc(NC(=O)Cn2c(=O)n(-c3ccc(C)cc3)c(=O)c3ccc(C(=O)NCc4ccco4)cc32)c1 | inactive: -14.9%
Cc1nc2ncnn2c(C)c1CCC(=O)NCc1ccccc1Cl | inactive: -10.8%
CCOc1ccccc1N(CC(=O)N1CCc2ccccc2C1)S(=O)(=O)c1ccccc1 | inactive: -21.1%
CCOCc1ccccc1Nc1ncnc2onc(-c3ccc(Cl)cc3)c12 | inactive: -4.64%
CCc1cccc(NC(=O)C(c2ccccc2)N2Cc3ccccc3C2=O)c1 (configuration not stated) | inactive: -23.9%
CCC(Sc1nncn2c1cc1oc(C)cc12)C(=O)Nc1ccc(F)cc1 (configuration not stated) | inactive: -19.1%
COCCn1c(=N)c(C(=O)NC(C)c2ccccc2)cc2c(=O)n3cc(C)ccc3nc21 (configuration not stated) | inactive: 0.877%
COc1ccc(CCNC(=O)C(=O)NCC(c2ccco2)S(=O)(=O)c2ccc(F)cc2)cc1 (configuration not stated) | inactive: -15.4%
COc1ccccc1OCC(O)CO (configuration not stated) | inactive: -4.14%
O=C(NCCCc1ccccc1)C1CCN(C(=O)N2CCOc3ccc(Cl)cc32)CC1 | inactive: -30.5%
Cn1ccc2c(OCC(=O)Nc3cc(C(F)(F)F)ccc3Cl)cccc2c1=O | inactive: -32.2%
CCOc1ccccc1NC(=O)CCn1nc(C)c(S(=O)(=O)N2CCCCC2)c1C | inactive: -22.9%
COc1ccc(C2C=C(c3ccccc3)Nc3nc(NC(=O)/C=C/c4ccccc4)nn32)cc1 (configuration not stated) | inactive: -13.6%

SMILES | activity change, positive = activation
CCN(CC)S(=O)(=O)c1ccc2c(c1)c(=O)c(C(=O)N1CCN(c3ccc(F)cc3)CC1)cn2C | inactive: -13.1%
O=C(Cn1ncc2c3ccccc3n(Cc3cccc(Cl)c3)c2c1=O)NC1CCCCCC1 | inactive: -1.26%
CCc1ccc(NC(=O)CSC2=Nc3ccccc3C3=NC(CC(=O)NCc4ccccc4)C(=O)N23)cc1 (configuration not stated) | inactive: -1.61%
CCN1CCSc2ccc(C(=O)NCc3ccc(OC)cc3)cc21 | inactive: -5.23%
COC(=O)CCN(c1ccccc1)S(=O)(=O)c1cc(-c2cc(C)no2)ccc1OC | inactive: -14%
CCCN(CCC)C(=O)c1c2c(nc3ccccc13)C(=O)N(C1CCCCC1)C2 | inactive: -4.53%
Cc1cc(S(=O)(=O)C(CNC(=O)COc2ccc(Cl)cc2)c2cccs2)ccc1F (configuration not stated) | inactive: -14.6%
Cc1cc(=O)[nH]c(=S)[nH]1 | inactive: 3.57%
Cc1ccc(CCNC(=O)C2CCN(Cc3nc(-c4ccccc4C)oc3C)CC2)cc1 | inactive: -29.6%
CCCN(C(=O)c1coc(=O)c2ccccc12)c1ccccc1C | inactive: -14.9%
CCc1ccc(OCC2c3cc(OC)c(OC)cc3CCN2C(=O)COc2ccccc2)cc1 (configuration not stated) | inactive: -26.4%
Cc1ccc(N2C(=O)CSC23C(=O)N(CC(=O)Nc2ccc(C(C)C)cc2)c2ccccc23)cc1C (configuration not stated) | inactive: -12.1%
COc1ccc(-n2nc(C(=O)Nc3cccc(C)n3)c3c4ccccc4n(C)c3c2=O)cc1Cl | inactive: -19%
CCOc1ccc(CCNC(=O)CCc2cn(Cc3ccc(F)cc3)c3ccccc23)cc1 | inactive: -25.7%
COc1cccc(NC(=O)C(Cc2ccccc2)NS(=O)(=O)c2ccc3c(c2)oc(=O)n3C)c1 (configuration not stated) | inactive: -8.74%
Cc1coc2cc3oc(=O)c(CC(=O)NCCc4ccccc4)c(C)c3cc12 | inactive: -4.69%
CCOc1ccc(NC(=O)Cn2cc(C(=O)c3ccco3)c3ccccc32)cc1 | inactive: -5.52%
CCOc1ccc(CCNC(=O)c2cc3c(-c4ccc(OC)c(OC)c4)nn(C)c3s2)cc1OCC | inactive: -51.5%
CCn1c(=O)cc(OCC(=O)Nc2cc(Cl)c(OC)cc2OC)c2ccccc21 | inactive: -3.72%
Cc1cccc(N2CCN(S(=O)(=O)c3cc(C(=O)Nc4ccccc4Cl)ccc3F)CC2)c1C | inactive: -31.8%
CCc1ccccc1NC(=O)CSc1nnc2ccc3ccccc3n12 | inactive: -9.67%
COC(=O)c1cc2oc3ccccc3c2n1Cc1nc(-c2ccccc2C)oc1C | inactive: -16.6%
O=C(CSCc1cc(=O)c2cc(F)ccc2[nH]1)Nc1ccccc1Cl | inactive: -20.8%
